Consider 29 molecules from the supplement of paper PMC12632987.

First the molecules themselves.
B1: GBRAP_35_5595 (protein)
chain: ELDELAVESLIDRIEALIEGVPELPVETISALANSLIRDARDLLERLKNNLEALKRLAEALKKLAEALEKYHSDDPLAQETLAKVNEALKELEEQAKKVE
B2: GBRAP_52_6371 (protein)
chain: MEEEARRLVEEILALMEAGDEEGAEALAERIVEEKSEELVALVLRELARLVRERPGRDPEALLQAAAILADELLESDVSSKEAWDALNELLAAGLALEQA
B3: GBRAP_18_5399 (protein)
chain: APSPFEQAWAALSEEDQDFVAEAIGDALSSEDTEERIDILVDALVELAARVSPEELYAAAYLLLHSVVSTMEEAQAVADRFIARVPERAPEARRVLEDLA
B4: GBRAP_35_5577 (protein)
chain: EDEEMLLETVEDLAEATIEAIKEGNLDLAIALLKAFLRTAKIAIEDLKNNKEALEKIAELLEKVIEEIKKYLSDNPEVQELKKELEELLKEAKEKLKKVK
B5: GBRAP_52_6155 (protein)
chain: MEERAKKYAEELIEAVKAGDEEKIEKLLKKIAEELSEEEIELMMRIIAEKVKELTPEEQERVVEAAIKLEDILIEAGHDENLASYLEAEVAGAAYKALQA
B6: GBRAP_184_5150 (protein)
chain: TTLRRAIEAETVEEALAQAAEVFAEAKAAGAKLTLAVFAEGFSVEEVAELARGLKALADEAGLTDATIILEVEADEEEADRVLAAADAAGVRAVVALEEP
B7: GBRAP_160_4272 (protein)
chain: SPEREELIEDIEEDREEILELVDKISPEEVRNFAVTSLGSHLLEAIDLGLVTDEQEDELMEIVDELEKELKEAENASKEEIKKIITEHYDKAIEILKKAK
B8: GBRAP_172_4998 (protein)
chain: KVKKVLLVFEDASLEEIIEAVLEEARKAKEEGYDFIVIGVVATHPLSSEELEEALKEALEKENIIDFEVLAESVPAAELDAAAARMKAAVETEALNREEE
B9: GBRAP_160_4832 (protein)
chain: MEKVEEAKEFIREEIEEILEMMEGETTEERAAIVAVGFGEIIMYLEEKGVATDELEDFIVEKEDEVVATILANPDLTDEELEELLEEAEEELIAELEKVA
B10: GBRAP_83_6948 (protein)
chain: KEKLVVAANDDNVAEAVAIAEDLAKTGKYDVTLEFIGGVEAAEKLLKEVAKAWAKGVTFDVEVLLRGATEEEAEKIKAAFEKVAKAAGKDVKVEVHVIKP
B11: GBRAP_52_6160 (protein)
chain: AEARARAMADEILAAVRAGDEEKLDELLRRAAKELSQEELELMLAHIAEAVAGLTPAEAEAVVEAAIRFEDLAVEAGHDEELLSYQLARVAAAAYKQLQA
B12: GBRAP_64_6490 (protein)
chain: DEEIKKLLEELEEAVKELEKAVAGLSPELQKKVKEVLELVEKAKTASLEERLDLVVEAAKLLNEILKNPELTPEQKDLAAEALDLASELAWLLFEKEEEE
B13: GBRAP_52_6029 (protein)
chain: MRAELQAKVDEILALVKAGKLEEAAKAAKELVASLNEEEVELLIDVIAERAAAAAPEDQDAVWQLAEIFAKALEEAGYDEVLADDLLARTAAALYEAEQR
B14: GBRAP_160_4565 (protein)
chain: MERVKELVEELRKDVEETLEETKDDSVENLRTALSGVIGSHAMEAAEDPRFSDEMVDILLEARDRIEAYLKEHKDASVEEIRKEVLKIVDEAGKKMLELA
B15: GBRAP_26_5478 (protein)
chain: IEEEVRKVLEELEKLLKELLDPELAAAALAEATTIIIEAAEKMEENKNDEEKLKEIVKEAVEELRRELETLGVSEEKREQIVEKAREGLERIAKKILEES
B16: GBRAP_128_3447 (protein)
chain: SMEEREERAKKVAKEFEEKLKEGPEAAAEFFIEEVEKADLEEVELITEAVVEVLRTLDNETAEKVVDLILKLSERLSPEKRAIVAVILSPLIFELVEKEE
B17: GBRAP_128_3423 (protein)
chain: MSEEKVKEAKKLLEEMLTADKEEAKKLAEELAELFLESDLETAEKIAEVIKEMLPKFTAEHLEILADALEKALPKLTPEKANVAADVIVDLLNEAEELEE
B18: GBRAP_43_5742 (protein)
chain: SKELVEGALDFTKLLAEDPEIDEETKLKAFIDTLRLIADEKVKAKEELVEAAKALAKSLSEENVKKAIAEIDRLAKENPEVKETFEAARKALLEELEKRK
B19: GBRAP_122_2942 (protein)
chain: DPTEERLAALIARIVAALDAGDAAALAAAADELVRLFETVTPEQARAAAERLLEAVADDEEKLEAALQAMLAAFERHQPLTPAQEVAADIFAEAFDELSE
B20: GBRAP_78_6662 (protein)
chain: EIEELIDKALEEISKAARLTKELPEEDRNEVLGLLVDAASDLVEAEEEGGNLELLKEALKSLKEAIKLLKELKTPEAEKVLKEVEEAKKYVEEAIKLKEK
B21: GBRAP_160_4804 (protein)
chain: MEKVEKLLEEARKDLLDTAEAAADLPVEDLAALLRAEGYTEILELEEELGLSDETVEELDKVVDDMVATLLANPDLTPEQVRALVEEAAERIEEIVLKEA
B22: GBRAP_128_3547 (protein)
chain: SLEEARERAREAVERIKASDVETAYEITVELLEELKTWSLEEVEAAVEELEKRLPELSAEKLEAVADAIEETRGEHSPEKQELLAGVEVDALNLAEEQEE
B23: GBRAP_78_6607 (protein)
chain: ETKEKIKKLLEEAERLMRQIAEIQPEVADQANEAAVAVGTALLAVETGEESKEEIKELVEEALKIAEELLKLLEGKSPEAQKLAEEAIKKLEEALKLLKE
B24: GBRAP_83_6969 (protein)
chain: MEKVDVVTTPDHVEEAADAARDLAEEEGYEVTVVLVGKPEEVLESAKIVAEKLKDLPNVSIEAAVENVRKEEAEKTKKELEEIGKKYGLKVEFHAELIEE
B25: GBRAP_52_6235 (protein)
chain: MRERMRRLAREIVELVLEGREEEARRLAREVAETLDDEELRILVEEFARLAEEAAPEDLDAVWRAVEIVAEALEEAGRPEILADDLESRTAAAIVKVEAK
B26: GBRAP_35_5504 (protein)
chain: SSMSTEADMLVATIEDLVLAIPDLPVEQATAIAESLIRSAEELAEDLEDDAENLERLKEAMKALLEALKKHYGDDPLAQEVAKRIEELIEKLEEKLKKAK
B27: GBRAP_160_4497 (protein)
chain: SERKERAKERARELVEEAAEAIREEEGEGKEQIARAYAGDIALELLELGVVSEEQEEEVLRLAEEGFRRMVEASEKGEEELERAAEELKRRLEELIEEFA
B28: GBRAP_128_3503 (protein)
chain: SLEEAVERVRELMRRIGEAGPEEARELVRELAALLASADRETAEAIAEAAIEELPKLNREALLVVADTLRELLPSLDPYKANLVADIQVEALNLALEKEE
B29: GBRAP_160_4135 (protein)
chain: SEELEKLIKEIKEIGEEALEMIEGETPENAKVIARVALGDIVMLVESNDAISEETEDEIGKIADEAEATLKANPDLTVEEIKALLKEATEKVVEIIEKEK

The full ranking holds about 4,500 sequences; the median of “median log2 fold change of GCK-ALFA target abundance (FLAG IP / Myc IP barcode read proportion)” is about 0.078, and the lowest 2% start at about -0.6. This is one part of the list.

Chain of GABARAP, O95166 (O95166 whole entry, the tested form may be a part): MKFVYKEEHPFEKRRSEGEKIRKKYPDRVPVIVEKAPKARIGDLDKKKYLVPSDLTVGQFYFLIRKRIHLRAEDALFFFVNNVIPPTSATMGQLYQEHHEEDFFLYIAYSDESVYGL

The target in the experiment is GABARAP, O95166. In words: median log2 fold change of GCK-ALFA target abundance (FLAG IP / Myc IP barcode read proportion) (log2 ratio); each designed protein is fused to an ALFA-tag nanobody in HEK293 cells to bring the named protein to FLAG-tagged glucokinase (GCK); Myc marks an untargeted standard; higher = target protein stabilised (more abundant). Particulars: target protein: 3xFLAG-MCP-GCK-ALFA reporter; HEK293 landing pad (RPLP). In a few lines:
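An ALFA-nanobody-fused binder library was recombined into HEK293 landing-pad cells and induced with 2 μg mL^−1 doxycycline. Cells were transfected with a plasmid expressing a FLAG-tagged target and a Myc-tagged standard. After 48 h, lysates underwent anti-FLAG and anti-Myc immunoprecipitation, and circular RNA barcodes were reverse transcribed, amplified and sequenced. Target abundance is the per-binder median log2 ratio of FLAG to Myc barcode read proportions. Barcodes needed ≥10^−7 proportion in both replicates, binders ≥3 barcodes per replicate, and a 10^−6 pseudocount was added; the two replicates were pooled.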
As to B1, the “median log2 fold change” value is 0.34.
Take B2: the “median log2 fold change” value was -0.586.
For B3 the value was -0.0426; for B4, 0.248; for B5, 0.302.
B6: the “median log2 fold change” value is 0.0742.
As for B7, the figure is 0.239.
For B8 the value was 0.302.
For B9 the value was -0.524; for B10, 0.253; for B11, -0.109.
For B12, the “median log2 fold change” value was -0.0828.
As for B13, the figure is 0.155; as for B14, 0.289.
Regarding B15, the “median log2 fold change” value is 0.182.
For B16 the value was 0.0217.
For B17 the value was 0.132; for B18, 0.112; for B19, 0.188.
For B20, the “median log2 fold change” value is 0.00267.
In the case of B21, the “median log2 fold change” value was -0.129.
For B22 the value was -0.126; for B23, 0.241.
On to B24, for which the “median log2 fold change” value is 0.0336.
As for B25, the figure is -0.0495.
For the molecule B26, the “median log2 fold change” value is -0.0789.
For B27 the value was 0.292; for B28, 0.0815; for B29, -0.387.
